In paper PMC4336329 (PLoS ONE, 2015):
The campaign covered roughly 310,000 compounds. About 14,000 (4.5%) showed an effect of 50% or more. Effects have a minus sign here. This is one part of the list.

Molecular target: human ether-à-go-go-related gene (hERG) potassium channel (human, UniProt Q12809)
Test: primary screen, population patch clamp on CHO cells stably expressing hERG
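Further: peak tail current of the secondary pulse compared with the same well before compound.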

Chain of human ether-à-go-go-related gene (hERG) potassium channel (Q12809 whole entry, looked up): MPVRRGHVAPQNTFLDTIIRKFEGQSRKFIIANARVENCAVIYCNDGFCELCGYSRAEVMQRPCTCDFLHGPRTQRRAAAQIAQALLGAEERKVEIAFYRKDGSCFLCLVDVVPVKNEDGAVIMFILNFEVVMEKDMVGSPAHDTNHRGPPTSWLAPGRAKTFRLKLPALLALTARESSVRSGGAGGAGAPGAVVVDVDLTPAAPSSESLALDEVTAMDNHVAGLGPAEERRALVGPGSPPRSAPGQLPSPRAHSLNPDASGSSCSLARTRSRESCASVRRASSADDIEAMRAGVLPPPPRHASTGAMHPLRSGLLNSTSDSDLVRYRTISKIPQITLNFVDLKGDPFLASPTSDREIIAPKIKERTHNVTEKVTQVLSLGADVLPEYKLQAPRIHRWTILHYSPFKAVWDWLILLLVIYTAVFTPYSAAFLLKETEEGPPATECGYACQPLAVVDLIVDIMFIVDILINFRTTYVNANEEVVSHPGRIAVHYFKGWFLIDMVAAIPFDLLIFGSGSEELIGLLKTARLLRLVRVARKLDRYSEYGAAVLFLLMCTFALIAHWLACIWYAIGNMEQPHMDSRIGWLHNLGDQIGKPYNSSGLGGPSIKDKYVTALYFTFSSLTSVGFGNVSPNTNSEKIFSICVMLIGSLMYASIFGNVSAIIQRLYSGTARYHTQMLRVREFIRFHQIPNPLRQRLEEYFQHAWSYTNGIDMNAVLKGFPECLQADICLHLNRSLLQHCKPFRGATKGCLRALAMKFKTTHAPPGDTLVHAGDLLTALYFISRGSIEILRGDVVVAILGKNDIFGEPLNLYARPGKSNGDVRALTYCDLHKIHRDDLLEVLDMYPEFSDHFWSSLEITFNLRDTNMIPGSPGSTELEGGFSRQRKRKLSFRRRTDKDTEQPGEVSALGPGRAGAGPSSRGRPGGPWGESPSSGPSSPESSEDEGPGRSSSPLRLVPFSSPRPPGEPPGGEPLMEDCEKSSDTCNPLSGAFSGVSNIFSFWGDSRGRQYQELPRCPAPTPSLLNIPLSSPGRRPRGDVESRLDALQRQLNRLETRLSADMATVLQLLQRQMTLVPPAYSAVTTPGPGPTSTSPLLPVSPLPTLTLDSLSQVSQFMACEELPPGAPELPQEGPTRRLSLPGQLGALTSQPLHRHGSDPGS

| SMILES | hERG current change (%, negative = inhibition) at 10uM [%] |
| --- | --- |
| CN(C)S(=O)(=O)c1ccc(Cl)c(NC(=O)CN2CCNC(=O)C2)c1 | 11.3 |
| Cc1ccc(S(=O)(=O)n2ccc(-c3cccc(OCc4c(F)cccc4Cl)c3)n2)cc1 | 6.83 |
| CCc1nc(N2CCC3(CC2)OCCO3)c2nnn(Cc3ccccc3)c2n1 | -37.1 |
| CCOc1ccc(Nc2nc(Cc3nnc(SCC(=O)NC4CCCC4)n3C)cs2)cc1 | -29.8 |
| COc1ccccc1N(C(=O)c1csnn1)C(C(=O)NC1CCCC1)c1ccccc1 (centres unmarked) | -1.69 |
| CC(=O)C1=C(O)C(=O)N(c2ccc(Br)cn2)C1c1ccc(F)cc1 (centres unmarked) | 16.9 |
| C=CCn1c(=O)c2ccccc2n2c(SC(C)C(N)=O)nnc12 (centres unmarked) | 7.3 |
| COc1cccc(N2CC(C(=O)Nc3nnc(SCc4cccnc4)s3)CC2=O)c1 (centres unmarked) | -26.7 |
| Cc1cccn2c(=O)c3cc(C(=O)NCc4cccnc4)c(=N)n(CC4CCCO4)c3nc12 (centres unmarked) | -75.6 |
| CCOc1ccc(/C=N/N2C(=O)C(CC(=O)Nc3ccc(F)cc3F)SC2=NC)cc1OC (centres unmarked) | 3.82 |
| NC(=O)CSc1nnc(Cc2csc(Nc3ccc(F)cc3)n2)n1Cc1ccccc1 | -3.78 |
| CN(C)c1ccc(CN(C(=O)c2cccs2)C2CCS(=O)(=O)C2)cc1 (centres unmarked) | -3.63 |
| CC(=O)Nc1ccccc1Sc1ccccc1 | -15.8 |
| COc1cc(-c2noc(C)c2C#CC2(O)CCCCC2)cc(OC)c1OC | -7.21 |
| COc1ccc(CCN2C(=O)CCC2(C)C(=O)NCc2cccnc2)cc1OC (centres unmarked) | 15.1 |
| O=C(Cn1cccc1C(=O)c1ccccc1)NCCc1ccc(Cl)cc1 | 16.3 |
| O=C(Nc1ccccc1)c1cccc(C(F)(F)F)c1 | 7.31 |
| O=C(CN(CCc1ccccc1)C(=O)CNS(=O)(=O)c1ccccc1)NCC1CCCO1 (centres unmarked) | 7.81 |
| O=C(Cn1ncc2c3ccccc3n(Cc3ccc(F)cc3)c2c1=O)N1CCC2(CC1)OCCO2 | -67.2 |
| CCOc1ccc(CNC(=S)N/N=C/c2cccnc2)cc1 | -17.5 |
| CCCCNC(=O)c1cc2nc(-c3ccccc3)cc(C(F)(F)F)n2n1 | -7.95 |
| CCCCCCN=CC1=C(O)C(C(=O)OC)C(C)(C)CC1=O (centres unmarked) | -4.72 |

| SMILES | hERG current change (%, negative = inhibition) at 10uM [%] |
| --- | --- |
| COc1ccc(NC(=O)CCS(=O)(=O)c2cccc3nonc23)cc1Cl | 2.39 |
| Cl.O=C(OCCN1CCCCC1)c1cccc(Cl)c1 | -30.6 |
| Cc1oc(-c2ccc(Cl)cc2)nc1CS(=O)CC(=O)NC1CCCCCC1 (centres unmarked) | -6.93 |
| CC1CN(C(=O)c2ccccc2Nc2ccc(SC(F)F)cc2)CC(C)O1 (centres unmarked) | -29.2 |
| CCC/C(=N/NC(=O)c1ccc2c(c1)OCO2)c1cccs1 | 7.75 |
| N#CC1=C(SCc2ccccc2)NC(=O)C(C#N)C12CCCC2 (centres unmarked) | 1.97 |
| C[C@H]1[C@@H](c2ccccc2)O[C@@H](c2ccccc2Br)N1C | 6.28 |
| O=C(Nc1ccc(Cl)c(Cl)c1)Nc1nnc(-c2ccncc2)s1 | -0.965 |
| CC(=O)N1CCN(c2ccc(NS(=O)(=O)c3ccc(C)cc3)cc2)CC1 | 11.4 |
| O=C(CCCn1c(=S)[nH]c2ccsc2c1=O)Nc1ccc2c(c1)OCCO2 | 8.37 |
| CC(=O)c1ccc(NC(=O)CSc2nc(Nc3ccccc3)nc(N3CCOCC3)n2)cc1 | -17.7 |
| Cc1ccc(C(=O)N2CCC3(CC2)Oc2ccc(F)cc2C(=O)C32CC(c3ccc(Cl)cc3)=NO2)s1 (centres unmarked) | 26 |
| COC(=O)C1CC(=O)N(Cc2ccccc2)C1 (centres unmarked) | 23.4 |
| CC1(C)NC(=O)N(CCCCOc2ccc3ccccc3c2Cl)C1=O | 16.4 |
| CS(=O)(=O)N1Cc2ccccc2CC1C(=O)Nc1ccccc1C(N)=O (centres unmarked) | -1.25 |
| Cc1c(C(=O)Nc2ccc(F)c(F)c2)oc2ccc(S(=O)(=O)N3CCCCC3)cc12 | -0.731 |
| O=[N+]([O-])c1cc(S(=O)(=O)C(F)(F)F)ccc1N1CCN(c2ccccc2)CC1 | -14.9 |
| CCc1ccc(NC(=O)Cn2nc(C)c([N+](=O)[O-])c2C)cc1 | 16 |
| CCOC(CNc1c([N+](=O)[O-])c(=O)n(C)c(=O)n1C)OCC | 14.3 |
| O=C(NC1CCCCC1)c1ccc(S(=O)(=O)N2CCCCC2)cc1 | -6.43 |
| COc1ccccc1-c1nc(SCC(=O)Nc2cc(C)on2)c2c(=O)n(C)c(=O)n(C)c2n1 | -28.5 |
| O=C1NC(=O)C2C1C(c1cccs1)NN2Cc1ccccc1 (centres unmarked) | 9.29 |

| SMILES | hERG current change (%, negative = inhibition) at 10uM [%] |
| --- | --- |
| CN(Cc1ccccc1)C(=O)c1nc2ccccn2c1CNCCOc1cccnc1 | -31 |
| O=C(Nc1cccnc1)C1OCCc2ccccc21 (centres unmarked) | -1.77 |
| COc1ccccc1N=C1SC(C(=O)Nc2cccc(Cl)c2Cl)C(N)=C1C(N)=O (centres unmarked) | 17 |
| CCOc1ccc2oc(C(=O)N3CC(C)OC(C)C3)c(C)c2c1 (centres unmarked) | 6.38 |
| O=C(/C(=N\O)n1cncn1)c1ccc(Cl)cc1Cl | 15.7 |
| CC(=O)c1sc(NC(=O)COc2ccccc2)nc1C | 3.6 |
| COC(=O)c1sccc1NC(=O)Nc1ccc(C(C)=O)cc1 | 11.2 |
| Cc1nnc(N/N=C/c2ccccc2F)n1N | 14.5 |
| CCOc1ccc(CNn2cnnc2)cc1 | 2.33 |
| O=C(NC1CC1)C1=C[C@@H](C2CC2)C[C@@H](OCc2ccc(CO)cc2)O1 | 3.82 |
| C=CCn1c(SCC(=O)N2CCN(C(=O)c3ccco3)CC2)nc2sc(CC)cc2c1=O | -76.3 |
| Cc1csc2nc(CNC(=O)C3CCCCC3)cn12 | 0.915 |
| COCCN1C(=O)C(O)=C(C(C)=O)C1c1ccc(OC)c(OC)c1 (centres unmarked) | 16.2 |
| CCOc1ccc(C(=O)Nc2ccc(-c3cc4ccccc4oc3=O)c(C)c2)cc1[N+](=O)[O-] | 1.33 |
| Cc1ccc(C(=O)Nc2ccc(S(=O)(=O)NC3=NCCCCC3)cc2)cc1S(=O)(=O)N1CCOCC1 | 3.24 |
| N#CC1=C(N)n2c(s/c(=C\c3cccs3)c2=O)=C(C#N)C1c1cccs1 (centres unmarked) | -7.83 |
| COC(=O)C1=C(C)OC(N)=C(C#N)C1c1c(C)nn(C)c1C (centres unmarked) | 6.51 |
| Cc1ccccc1NC(=O)CSc1nc2c(c(=O)n(C)c(=O)n2C)n1C | -5.42 |
| Cc1ccc(NC(=O)CN(C)S(=O)(=O)c2ccc3[nH]c(=O)oc3c2)c(C)c1 | -4.26 |
| Cc1cccc(C(=O)NNC(=O)c2ccc(O)cc2)c1 | -2.31 |
| CN1c2ccsc2/C(=N/Nc2ccc(F)cc2)CS1(=O)=O | 8.61 |
| Cc1cccc(OCC(=O)Nc2ccc(S(=O)(=O)Nc3cc(C)nc(C)n3)cc2)c1 | 19.8 |

| SMILES | hERG current change (%, negative = inhibition) at 10uM [%] |
| --- | --- |
| COc1ccc(-c2cc(C(=O)NCCCn3ccnc3)no2)cc1OC | 3.22 |
| CCn1c(=O)c2c(nc3n2CCN3c2ccccc2)n(C)c1=O | -2.56 |
| O=c1c2ccccc2c2ccccc2c(=O)n1-c1ccccc1 | 10.6 |
| COC(=O)c1ccccc1NC(=O)N1CCN(c2ccccc2)CC1 | -2.67 |
| Cc1cccc(-c2oc3ccc(-c4ccc5c(c4)OCO5)cc3c2-c2ccc(OC3CCCCO3)cc2)c1 (centres unmarked) | 20.2 |
| COc1ccc(NC(=O)Cc2c(Sc3ccccc3)c3ccccc3n2C)cc1 | 22.6 |
| O=C(CSCc1cccc(CSCC(=O)Nc2ccccc2)n1)Nc1ccccc1 | -67 |
| O=C(CCCN1CCC(O)(c2ccc(Br)cc2)CC1)c1ccc(F)cc1 | -79.7 |
| O=C(Nc1nnc(-c2ccncc2)s1)C1CCCO1 (centres unmarked) | 21 |
| CCOc1cc(NC(=S)Nc2ccc(Cl)cc2)c(OCC)cc1NC(C)=O | 2.28 |
| COc1ccccc1-c1nn(-c2ccccc2)cc1C(=O)N1CCc2ccccc2C1 | -4.47 |
| Nc1ccc2c(c1)C(=O)N(c1cccc3ccccc13)C2=O | -8.7 |
| CC(/C=N/NC(=O)c1cc(-c2ccccc2)nc2ccccc12)=C\c1ccco1 | 4.1 |
| N#Cc1ccc(COC(=O)Cn2nnc(-c3ccccc3)n2)cc1 | 0.45 |
| O=C(CN1CCN(C(=O)c2ccccc2)CC1)Nc1ccc(Br)cn1 | -74.4 |
| CC(O)[C@@]1(O)CC[C@H]2[C@@H]3CC[C@H]4C[C@@H](O)CC[C@]4(C)C3=CC[C@@]21C (some centres unmarked) | -15.1 |
| CCc1nnc(NC(=O)[C@@H](NC(=O)c2ccc(OC)cc2)C(C)C)s1 | 18.3 |
| Cc1cccc(C)c1NC(=O)c1cc(-c2ccccn2)nc2ccccc12 | 1 |
| O=C(NNC(=O)c1ccc(F)c(S(=O)(=O)N2CCOCC2)c1)c1ccc(Br)cc1 | -31.2 |
| CC1CCN(CC(O)COCCC23CC4CC(CC(C4)C2)C3)CC1.Cl (centres unmarked) | -51.5 |
